Laboratory results from PubChem BioAssay AID1240 (Sanford-Burnham Center for Chemical Genomics, 2008).
About 800 (1.6%) of roughly 50,000 compounds showed an effect of 50% or more. This is one part of the list.

Each molecule was assayed against Bcl-2-like protein 10 (Homo sapiens) (UniProt Q9HD36) (assay: TR3 peptide-Bcl-B binding displacers, biochemical primary FP assay, phenotype converters (AID 1240;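 note: 0% = Bcl-B with tracer peptide and DMSO and 100% = tracer peptide lacking Bcl-B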)). Settings: GST-Bcl-B / FITC-TR3 peptide fluorescence polarization; stronger effect = higher value; compound at 3.75 mg/L.
UniProt Q9HD36, sequence (Q9HD36 whole entry, looked up): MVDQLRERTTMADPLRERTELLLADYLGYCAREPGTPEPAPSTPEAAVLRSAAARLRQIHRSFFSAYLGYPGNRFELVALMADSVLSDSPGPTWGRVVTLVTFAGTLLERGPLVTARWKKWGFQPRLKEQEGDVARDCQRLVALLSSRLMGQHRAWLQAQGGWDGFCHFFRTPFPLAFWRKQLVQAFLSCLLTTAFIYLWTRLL
`CCC/C(O)=C1\C(=O)CC(C)(C)CC1=Nc1ccccc1` was tested, and the displacement was 3.7%. Molecule `CN(C)CCCN1C(=O)CSC1c1cccc(Cl)c1` (configuration not stated) has a displacement of -5.4%. `CCOC(=O)c1ccccc1NC(=O)Cc1ccccc1[N+](=O)[O-]` gave a displacement of -0.2%. `Fc1ccc(-c2ccc(C(=S)N3CCN(c4ccccc4)CC3)o2)cc1` showed a displacement of 4.1%. For `CCc1ccc(OCC(=O)Nc2ccc(F)cc2)cc1`, the displacement was 15.9%. `N#C/C(=C\c1ccc(-c2cccc(C(F)(F)F)c2)o1)C(N)=O` gave a displacement of -2.5%. Work on `Cc1ccc(-c2nc3ncccc3o2)cc1NC(=O)c1ccco1` yielded a displacement of 11.6%. `COCCCN1C(=O)/C(=C\c2ccc(SC)cc2)C(C(=O)OC)=C1C` was tested, and the displacement was 1.8%. With `CC(C)CCSc1nc2sc3c(c2c(=O)n1Cc1ccccc1)CCC3` the displacement was 7.8%. `Cc1ccc(NC(=O)C(=O)NCc2ccccc2Cl)cc1` gave a displacement of 0.2%. For `CC1=C(C)CC2C(=O)N(c3ccccc3[N+](=O)[O-])C(=O)C2C1` (configuration not stated), the displacement was -10.1%. Work on `O=c1oc2cc([N+](=O)[O-])ccc2nc1/C=C(\O)c1ccc(Br)cc1` yielded a displacement of 18.6%. Molecule `Cc1cc(C)n(-c2cc(N3CCOCC3)nc(C)n2)n1` has a displacement of -1.2%. `O=C(CSc1nc2ccccc2n1Cc1ccccc1)N/N=C/c1ccco1` was tested, and the displacement was 6.1%. For `COc1cc(NC(=O)c2ccccc2C)c(Cl)cc1NC(=O)c1ccccc1`, the displacement was 7%. For `CC1=C(C(=O)OC2CCCC2C)C(c2ccccc2)NC(=O)N1` (configuration not stated), the displacement was 0.5%. Molecule `CCOc1cc(/C=C(\C#N)c2nc3ncc(Br)cc3[nH]2)ccc1O` has a displacement of 0.5%. In the case of `COc1ccc(-n2nc3cc(C)c(NC(C)=O)cc3n2)cc1`, the displacement is reported as 3.3%. With `CC(=O)c1nc2cc([N+](=O)[O-])ccc2n1Cc1ccccc1` the displacement was 1.8%. `O=C(NCCNc1c(Cl)cccc1[N+](=O)[O-])c1cc(F)c(F)cc1Cl` was tested, and the displacement was 9.7%. Work on `O=[N+]([O-])/C=C/c1ccc(-c2ccc(Cl)cc2)o1` yielded a displacement of 14.7%. Molecule `COC(=O)c1ccc(NC(=O)COc2ccccc2C(C)C)cc1` has a displacement of 14.3%. In the case of `COc1ccc(S(=O)(=O)N2CCN(c3ccc(F)cc3)CC2)cc1`, the displacement is reported as -12%. With `COC(=O)c1coc(-c2ccc(C)cc2)c1C(=O)OC` the displacement was -5.5%. With `Cc1ccc2c(c1)-c1c(ssc1=S)C(C)(C)N2C(=O)CC(C)C` the displacement was 10.5%. Work on `O=C1OC(c2ccc(Cl)cc2)=C/C1=C\c1ccc(-c2ccccc2C(=O)O)o1` yielded a displacement of 4%. Molecule `O=C1OC(c2ccccc2)=C/C1=C/N1CCOCC1` has a displacement of -5.9%. Molecule `O=c1c2ccccc2c(-c2ccccc2)nn1-c1cc(N2CCN(CCO)CC2)ccc1[N+](=O)[O-]` has a displacement of -5.5%. `COCCNC(=O)CN(c1ccc(OC)cc1OC)S(=O)(=O)c1ccc(C)cc1` showed a displacement of 8.1%. For `CCOC(=O)C1CCCN(C2CC(=O)N(c3ccc(C)cc3)C2=O)C1` (configuration not stated), the displacement was 2.3%. Work on `O=C(NC(=S)Nc1ccccc1O)c1cccnc1` yielded a displacement of -6.1%. Molecule `Cc1[nH]n(-c2ccccc2)c(=O)c1C=O` has a displacement of -0.7%. `COc1ccc(OC)c(C2CC(O)(c3ccccc3OC)C(C)C(c3cc(OC)ccc3OC)N2)c1` (configuration not stated) was tested, and the displacement was 12.1%. With `CCCOc1ccc(/C=C/C(=O)c2cccs2)cc1OCC` the displacement was -13.4%. `COC(=O)c1ccc(/C=C2\C(=O)NC(=S)N(c3ccc(Br)cc3C)C2=O)cc1` was tested, and the displacement was 16.9%. `COc1ccc(C2NC(=S)NC(C)=C2C(=O)Nc2ccccc2)cc1OC` (configuration not stated) was tested, and the displacement was -9.2%. With `O=C1C=CC(=O)N1c1ccc(Oc2ccc(S(=O)(=O)c3ccc(Oc4ccc(N5C(=O)C=CC5=O)cc4)cc3)cc2)cc1` the displacement was -0.3%. `CCOC(=O)C(C)Oc1ccc2oc(C)c(C(=O)OCCOC)c2c1` (configuration not stated) was tested, and the displacement was 5.9%. For `O=C(Nc1ccc(NC(=O)c2ccc(Cl)cc2Cl)cc1)c1ccccc1O`, the displacement was 14.8%. `CCN(CC)c1c(-c2ccccc2)c2cc(C)ccc2[nH]c1=O` was tested, and the displacement was -15.9%. Molecule `Cc1ccc(OCC(=O)NCc2ccncc2)cc1` has a displacement of -0.3%. `CCOC(=O)c1c(-n2c(C)cc(/C=C3/SC(N)=NC3=O)c2C)sc2c1CCCC2` was tested, and the displacement was -33.6%. `C=CCN(CC=C)C(=O)CCc1ccccc1` was tested, and the displacement was -9.8%. In the case of `CC(Cc1ccccc1)NC(=O)CCC(=O)NC(C)Cc1ccccc1` (configuration not stated), the displacement is reported as 20.2%. In the case of `CCCCOC(=O)c1ccc(NC(=O)C(C)(C)C)cc1`, the displacement is reported as 35.7%. Work on `CCCOc1cccc(C(=O)Nc2c(C)ccc3nsnc23)c1` yielded a displacement of 9%. Work on `CC(=O)C1=C(Nc2ccc(Br)cc2)CC(C)(O)C(C(C)=O)C1c1ccc(Cl)cc1` (configuration not stated) yielded a displacement of -7.5%. `CC1(C)Cc2ccccc2C(Nc2ccc(Cl)cc2)=N1` was tested, and the displacement was 7.2%. With `CCOc1cc(/C=C2\C=C(c3ccc(C)cc3)OC2=O)ccc1OC(C)=O` the displacement was 111%. For `N#CCc1ccc(NC(=O)c2cc(Cl)cc(Cl)c2O)cc1`, the displacement was 2.7%. Work on `COc1cc(C(=O)Nc2ccc(C(C)C)cc2)c([N+](=O)[O-])cc1OC` yielded a displacement of 11.1%. With `CCOC(=O)c1c(N)sc2c1CCC(c1ccccc1)C2` (configuration not stated) the displacement was -1.2%. With `O=C(O)C1Cc2c([nH]c3ccccc23)C(c2ccccc2F)N1` (configuration not stated) the displacement was 24.3%. For `Cc1c(NC(=O)c2ccc3c(c2)OCCO3)cccc1-c1nc2ncccc2o1`, the displacement was -30%. In the case of `O=C(/C=C/c1cccs1)Nc1ncc(Cc2ccccc2Cl)s1`, the displacement is reported as 10.7%. `CCn1c(C(O)c2ccccc2)nc2ccccc21` (configuration not stated) gave a displacement of 1.5%. With `CC(C)(C)NC(=O)c1cnn2c1NC(c1ccc(F)cc1)CC2C(F)(F)F` (configuration not stated) the displacement was 5.1%. `Cc1ccc(C2(c3ccc(C)cc3)CC2C(=O)NCCc2ccccc2)cc1` (configuration not stated) gave a displacement of -12.6%. For `Cc1ccc(CNC(=O)C(=O)Nc2ccccc2Br)cc1`, the displacement was 5.7%. In the case of `Cc1ccc(S(=O)(=O)N2CCN(Cc3c[nH]c4ccccc34)CC2)cc1`, the displacement is reported as -7.5%. With `Cc1c(C)c(C)c(C(=O)Nc2ccc(Cl)c(Cl)c2)c(C)c1C` the displacement was 12.4%. Work on `O=C(NCCN1CCOCC1)C1CC2CCC1C2` (configuration not stated) yielded a displacement of 0.3%. For `Nc1ccccc1N=CC1=C(O)CNC1=O`, the displacement was 37.4%. `Cc1ccc(C=Nc2cc(C)on2)c(O)c1` gave a displacement of -15.4%. For `Cn1c(=O)n(CCOc2ccc(F)cc2)c2ccccc21`, the displacement was 2.6%. Molecule `O=c1c2ccccc2c(-c2ccc(F)cc2)nn1-c1cc(Cl)ccc1[N+](=O)[O-]` has a displacement of 10.5%. For `NC(=O)Cn1cc(/C=C2\C(=O)NC(=O)N(Cc3ccccc3)C2=O)c2ccccc21`, the displacement was 17%. `O=C1N=C(N2CCCC2)S/C1=C\c1ccc(O)cc1` gave a displacement of -15.4%. In the case of `O=S(=O)(NCc1cccnc1)c1ccc(Cl)c(Cl)c1`, the displacement is reported as -6.7%. `CCC(=O)NC(Nc1ccc(C)cn1)(C(F)(F)F)C(F)(F)F` was tested, and the displacement was 10%. `Nc1ccc2nc(SCc3ccc(C(=O)O)cc3)sc2c1` was tested, and the displacement was 0.9%. `Cc1cccc(CN2CCN(C(=O)c3ccco3)CC2)c1` showed a displacement of 0.3%. In the case of `CC(Oc1ccc(Br)cc1)C(=O)N/N=C/c1ccccc1O` (configuration not stated), the displacement is reported as 3.3%. `NC(=O)c1ccccc1NC(=O)c1cc2ccccc2o1` was tested, and the displacement was -34.7%. In the case of `O=C(Cn1nnc(-c2ccccc2Cl)n1)N/N=C/c1cc(Cl)cc(Cl)c1O`, the displacement is reported as -8.4%. `CCOC(=O)C(CC)P(=O)(c1ccccc1)c1ccccc1` (configuration not stated) gave a displacement of 20.9%. In the case of `CC(=O)c1ccc(Nc2ncnc(Nc3ccc(C(C)=O)cc3)c2[N+](=O)[O-])cc1`, the displacement is reported as -5.3%. With `COc1cc(C2N(c3ccccc3)CCN2c2ccccc2)ccc1OC(C)=O` the displacement was 5.9%. For `Cn1c(-c2ccccc2Br)n[nH]c1=S`, the displacement was 4.6%. `O=C(O)c1ccc(Nc2nc(-c3ccccc3)c3ccccc3n2)cc1` showed a displacement of 8.7%. Work on `O=C1C(=O)N(c2nccs2)C(c2cccc(Cl)c2)/C1=C(\O)c1ccc(Cl)cc1` (configuration not stated) yielded a displacement of 11.7%. Molecule `COc1ccc(C2Nc3ccc(C(=O)c4ccccc4)cc3NC3=C2C(=O)CCC3)cc1` (configuration not stated) has a displacement of -0.5%. `Cc1cccc(OCC(=O)N2CCCC2)c1` showed a displacement of 11.9%. With `N#C/C(=C\N1CCOCC1)c1ccccc1` the displacement was -0.9%. Molecule `Cc1ccc(N2C(=O)NC(=O)/C(=C\c3ccsc3)C2=O)cc1` has a displacement of 66.1%. `COc1ccc(Br)cc1/C=C/C(=O)Nc1cc(-c2nc3ccccc3o2)ccc1C` gave a displacement of 5.1%. `CCOC(=O)C1=C(O)/C(=C/c2ccc(C(C)(C)C)cc2)SC1=Nc1ccccc1` showed a displacement of -6.6%. For `CC(=O)N1CC2(CC(=O)OC(C)C)CN(C(C)=O)CC(CC(=O)OC(C)C)(C1)C2=O`, the displacement was -2.4%. In the case of `Cc1ccn(S(=O)(=O)c2ccc(N3CCCC3=O)cc2)n1`, the displacement is reported as 10.3%. Work on `C=CCNC(=O)C(=O)NCCCOC` yielded a displacement of 6.1%. Molecule `CC1(C)C(=O)N(Cc2ccc(Cl)c(Cl)c2)c2ccccc2N1C(=O)c1cccc([N+](=O)[O-])c1` has a displacement of -9.7%. With `C=CCn1c(SCC(C)C)nc(O)c(Cc2ccccc2)c1=O` the displacement was 5.5%. For `COC(=O)C1=C(C)NC(=O)CC1c1cc(Br)ccc1OC` (configuration not stated), the displacement was 2.7%. Molecule `Cn1c2ccc(Cl)cc2c2cc(C(=O)C(F)(F)F)ccc21` has a displacement of -5.8%. `Cc1ccn2c(NC(=O)/C=C/c3ccccc3)c(-c3ccccc3)nc2c1` gave a displacement of 10.7%. With `CCCCP(=O)(CCCC)CCP(=O)(c1ccccc1)c1ccccc1` the displacement was 16.4%. Molecule `COC(=O)c1c(C)oc2ccc(NS(=O)(=O)c3ccc(Cl)c([N+](=O)[O-])c3)cc12` has a displacement of 6.3%. Work on `COC(=O)C1=C(C)NC2=C(C(=O)CC(C)(C)C2)C1c1ccccc1` (configuration not stated) yielded a displacement of 8.7%. `CCN(CC)c1ccc(-c2c(C#N)c(N)nc(OC)c2C#N)cc1` was tested, and the displacement was 0.5%. For `COc1ccc(N(CC(=O)Nc2cccc(C)c2C)S(=O)(=O)c2ccccc2)cc1`, the displacement was -1.8%. `CCOC(=O)CCN1C(=O)/C(=C/c2ccccc2)SC1=S` showed a displacement of -3.1%. `O=C1C(=Cc2ccc(OCc3ccc(F)cc3)cc2)C(=O)c2ccccc21` was tested, and the displacement was -10.4%. `O=C(O)c1cccc(N2C(=O)c3ccc(Br)cc3C2=O)c1` showed a displacement of 0.1%. `COc1ccc(CN2CCN(Cc3ccccn3)CC2)cc1` was tested, and the displacement was 3%. With `Cc1cc(Cl)ccc1OCC(=O)Nc1ccc(S(=O)(=O)Nc2onc(C)c2C)cc1` the displacement was 5.6%. Molecule `COc1cc(/C=N/n2cnnc2)cc(I)c1OCCOc1cc(C)ccc1C(C)C` has a displacement of -1.9%. In the case of `Cc1ccc(N2CC(C(=O)N/N=C/c3cccc(Br)c3)CC2=O)cc1` (configuration not stated), the displacement is reported as -8.3%. With `Cn1nnnc1SCc1ccc(F)cc1` the displacement was -4%. `CCOc1cccc(C(=O)Nc2cccnc2)c1` was tested, and the displacement was 10.8%. `Cc1cc(C)cc(NCc2cccnc2)c1` gave a displacement of 15.1%. Work on `Cc1ccc(C)n1-n1cnc2sc3c(c2c1=O)CCCC3` yielded a displacement of 3.8%. With `C=CCN1C(=O)/C(=C\c2ccc(OCC(=O)O)c(OC)c2)C(=O)NC1=S` the displacement was -8.8%.
